Results published in publication PMC6919601, “Identification of Plasmodium dipeptidyl aminopeptidase allosteric inhibitors by high throughput screening” (PLoS ONE, 2019).
Values joined by “and” are separate entries in the source; they are usually repeats but may differ in a detail not shown here. Equal values may be shown once. Out of some 110,000 compounds screened, about 230 (0.21%) showed an effect of 50% or more. Some of the results follow.

These compounds were tested against DPAP1 (Plasmodium falciparum, UniProt Q8IIJ9) (assay: primary screen, percent inhibition; read by cleavage of a fluorogenic dipeptide substrate; higher = more effect of the substance).
Sequence of DPAP1 (Q8IIJ9 whole entry, looked up): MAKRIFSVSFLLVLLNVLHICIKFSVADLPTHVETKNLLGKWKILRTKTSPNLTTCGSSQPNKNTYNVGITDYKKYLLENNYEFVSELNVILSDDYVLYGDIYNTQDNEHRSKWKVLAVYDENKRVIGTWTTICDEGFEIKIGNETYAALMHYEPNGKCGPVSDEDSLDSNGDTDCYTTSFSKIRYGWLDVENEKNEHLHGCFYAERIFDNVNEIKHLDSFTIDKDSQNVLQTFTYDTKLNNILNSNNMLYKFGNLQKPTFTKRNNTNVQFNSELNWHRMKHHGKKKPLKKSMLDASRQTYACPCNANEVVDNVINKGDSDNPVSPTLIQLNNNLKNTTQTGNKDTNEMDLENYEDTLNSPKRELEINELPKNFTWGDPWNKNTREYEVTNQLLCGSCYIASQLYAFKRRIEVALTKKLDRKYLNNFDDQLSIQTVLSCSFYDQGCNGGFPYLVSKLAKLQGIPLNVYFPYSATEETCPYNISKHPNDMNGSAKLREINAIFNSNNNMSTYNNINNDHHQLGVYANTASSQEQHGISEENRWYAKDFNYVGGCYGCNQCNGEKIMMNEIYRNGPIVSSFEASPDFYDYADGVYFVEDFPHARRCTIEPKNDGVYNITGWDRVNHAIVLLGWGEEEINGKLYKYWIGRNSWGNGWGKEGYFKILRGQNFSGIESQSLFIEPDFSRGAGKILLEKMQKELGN
Parameters: species or system P. falciparum D10 trophozoite lysates; single well
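Also: 30 min substrate incubation versus DMSO and 10 µM JCP410 controls.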

SMILES | % Inhibition @ 10 uM
Cc1ccc(F)c(NC(=O)Nc2ccc(Cl)cc2)c1 | 1.29%
N#CC1=C(N)SC(N)=C(C#N)C1c1ccc([N+](=O)[O-])cc1 | 34.5%
O=C(O)c1ccccc1C(=O)NCCC1=CCCCC1 | 2.79%
CN(Cc1ccccc1)C(Cc1ccccc1)C(=O)O (stereo not drawn) | -3.45%
c1ccc2[nH]c(SCCN3CCCCC3)nc2c1 | -1.99%
COCn1nnc(-c2ccccn2)n1 | 0.9%
COC(=O)[C@H](CC(C)C)NC(=O)[C@@H]1C=CCN1C#N | 0.744%
Cc1ccc(C(=O)c2sc3nc(-c4ccccc4)ccc3c2N)cc1 | 1.48%
CC(C)CC(NC(=O)OCc1ccccc1)C(=O)NC(CCc1ccccc1)C(=O)C1=N[C@@H](C)[C@H](c2ccccc2)O1 (stereo partly drawn) | -5.64%
CCC(Cc1ccccc1)NS(=O)(=O)c1c(C)nc2sccn2c1=O (stereo not drawn) | 3.02%
Cc1cc(/C=C2\Cc3ccccc3C2=O)c(C)n1-c1ccccc1 | -1.31%
COc1ccc(C2=N/C(=C\c3cccc(OC)c3OC)C(=O)O2)c(Cl)c1 | 3.1%
COc1ccc(-c2cn3c(n2)sc2cc(C(=O)NCC4CCCO4)ccc23)cc1 (stereo not drawn) | 14.9%
COc1ccc(C(=O)c2oc3ccccc3c2NC(=O)C(C)(C)C)cc1 | -1.11%
CC[C@H](NC(=O)[C@H](CS(=O)(=O)Cc1ccccc1OC(F)F)NC(=O)N1CCOCC1)C(=O)c1nc2ncccc2o1 | 2.87%
Cc1cccc2cc(C(=O)CS(=O)(=O)c3ccc(Cl)cc3)c(=O)oc12 | -6.24%
O=CN1CCN(Cc2cc(F)ccc2F)CC1 | 1.05%
Cc1cc(C)c(C#N)c(SCc2nc3cccc(C)n3c2Br)n1 | 0.722%
COc1ccc2[nH]cc(CCNc3nc(C)c(C(C)=O)s3)c2c1 | -2.91%
Cc1ccc(S(=O)(=O)NC(C)C(=O)Nc2ccc(C(F)(F)F)cc2)cc1 (stereo not drawn) | -1.61%
CC(=O)c1ccc(N2CCN(Cc3cccnc3)CC2)cc1 | 3.48%

SMILES | % Inhibition @ 10 uM
Cc1[nH]c2ccccc2c1C(=O)CSc1ccccc1 | 3.31%
COCc1cc(C)nc2sc(C3=NC(C)(C)Cc4ccccc43)c(N)c12 | 3.21%
Cc1nn(C(C)C(=O)NCCc2ccc(Cl)cc2)c(=O)c2cc3sccc3n12 (stereo not drawn) | -5.19%
CC1(C)CC2CC(C)(CN2Cc2cccc([N+](=O)[O-])c2)C1 (stereo not drawn) | -1.41%
COc1ccc(C2=[N+]([O-])C(C)(C)C(c3ccccc3)=N2)cc1 | -3.21%
COc1ccc(S(=O)(=O)Nc2ccccc2C(=O)NC(C)c2ccccc2)cc1Br (stereo not drawn) | -0.545%
CC(C)C[C@H](NC(=O)c1ccc(C(C)N2CCN(C)CC2)cc1)C(=O)NCC#N (stereo partly drawn) | -5.64%
CCOc1ccc(C2C(C#N)=C(N)OC3=C2C(=O)CC(C)(C)C3)cc1OC (stereo not drawn) | -4.76%
Cc1ccc(CS(=O)(=O)CCC(=O)O)cc1 | 1.42%
Oc1nc(-c2cccc(Cl)c2)nc2c1Cc1ccccc1O2 | -2.84%
Cc1ccc(S(=O)(=O)C2CC(C)C(=O)N(Cc3ccccc3)C2=O)cc1 (stereo not drawn) | -1.55%
Cc1ccc(NC(=O)CN2C(=O)N/C(=C/c3ccc(OCC(C)C)cc3)C2=O)cc1 | 5.49%
CC1(C)CC2(CCO1)OC(=O)CC2C(=N)S (stereo not drawn) | -2.42%
CC1=C(C)CC2C(=O)N(c3cccc(C)c3C)C(=O)C2C1 (stereo not drawn) | 0.913%
Cc1nc2cc(NC(=O)Nc3cccc(C(F)(F)F)c3)ccc2n1C | -4.6%
COc1ccccc1C1C2=C(O)CC(C)(C)CC2=Nc2ccccc2N1C(C)=O (stereo not drawn) | -7.02%
OCC1CCCCN1Cc1c(F)cccc1Cl (stereo not drawn) | -5.65%
COc1ccc(C2=N/C(=C\c3cccnc3)C(=O)O2)c(Cl)c1 | 2.11%
CCOc1cc2c(cc1OCC)C(c1ccc(OC)c(OC)c1)NCC2 (stereo not drawn) | -1.79%
C/C(=N\CCc1c[nH]c2ccccc12)C1=C(O)c2ccccc2C1=O | 4.32% and -0.467%
O=C(c1ccc(COc2ccccc2Cl)o1)N1CCCC1 | -0.988%

SMILES | % Inhibition @ 10 uM
Cc1c(C(=O)NCc2ccccc2Cl)oc2c1-c1n[nH]cc1CC2 | 2.27%
CC1=C(C(=O)Nc2ccccc2)C(c2cccs2)NC(S)=N1 (stereo not drawn) | -0.294%
O=c1c2ccccc2nc(CN2CCN(Cc3ccccc3)CC2)n1-c1ccc(F)cc1 | -7.17%
CNc1nc2c(s1)C(=O)CC(C)(C)C2 | -0.711%
Cc1nn(CC(=O)N2CCOCC2)c(=O)c2nn(-c3ccccc3)c(C)c12 | -5.74%
Cc1ccccc1-n1c(SCc2ccccn2)nc2nnc(C)c-2c1N | 0.992%
O=C(COc1ccc(Br)cc1Cl)Nc1ccc(S(=O)(=O)N2CCOCC2)cc1 | -3.04%
Cn1c(C(Cc2ccccc2)NC(=O)c2ccc(F)cc2)nc2ccccc21 (stereo not drawn) | 0.813%
COc1ccc(C(=O)CC2(O)C(=O)N(CCc3ccccc3)c3ccccc32)cc1OC (stereo not drawn) | -7.23%
O=C(CSc1nc2c(c(=O)n1CCc1ccccc1)SCC2)N1CCCCC1 | 3.25%
COc1ccc(-c2noc(CN(C(=O)COc3ccc(C)cc3Br)C(C)C)n2)cc1 | 1.66%
COc1ccccc1N1CCN(C(=O)CN(c2ccccc2C)S(C)(=O)=O)CC1 | -1.79%
CC(CCCC(C)(C)O)NC1CCN(C)CC1 (stereo not drawn) | 5.03%
CCCNC(=O)C1CC(c2ccccc2F)=NO1 (stereo not drawn) | -5.79%
CC1(C)CC(=O)C(=C2C(=O)c3ccccc3C(O)=C2Cl)C(=O)C1 | 6.27%
C/C(Cl)=C/CN1C(=O)C2CC=C(Cl)CC2C1=O (stereo not drawn) | -2.14%
CCCN1CCN(C(=O)c2cc3c(O)nc4ccc(C)cc4c3s2)CC1 | 9.26%
Cc1c(C(=O)NC(C)CCc2ccccc2)oc2ccc(S(=O)(=O)N3CCOCC3)cc12 (stereo not drawn) | 1.14%
C=CCOc1ccc(/C=C2/SC(=O)N(CC(=O)N3CCN(c4ccccc4)CC3)C2=O)cc1 | 1.89%
CCN(CC)CCNC(=O)CN1Cc2c(cnn2-c2ccccc2)C1=O | 5%
COc1ccc(NS(=O)(=O)C[C@H](CCCCN)NC(=O)[C@H](CS(=O)(=O)Cc2ccccc2)NC(=O)N2CCOCC2)cc1 | -5.21%
